{"source": "the supplement of paper PMC8728848", "binders": {"B1": {"name": "CTLY 1 (Homo sapiens), Q6ZS10 (protein)", "chain": "AITCPEGWLPFEGKCYYFSPSTKSWDEARMFCQENYSHLVIINSFAEHNFVAKAHGSPRVYWLGLNDRAQEGDWRWLDGSPVTLSFWEPEEPNNIHDEDCATMNKGGTWNDLSCYKTTYWICERKGLNDIFEAQKIEWHE"}}, "test_in_all_cases": "glycan array binding signal (z-score within array); higher = stronger binding", "conditions_in_all_cases": "glycan notation: IUPAC condensed, linker removed", "key": {"[1]": {"target": "Neu5Ac(a2-8)Neu5Ac", "outline": "(§1)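 Glycan array data were curated from 3228 arrays in the Consortium for Functional Glycomics database and kept only where the protein sequence was available. Glycan names were converted to IUPAC-condensed notation, and columns mapping to the same glycan were averaged. The binding signal is a within-array Z-score, averaged across arrays of the same protein sequence at different concentrations or buffers and across linkers. Negative Z-scores can be read as non-binding.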"}, "[2]": {"target": "Neu5Ac(a2-8)Neu5Ac(a2-3)Gal(b1-4)Glc", "outline": "as §1"}, "[3]": {"target": "Neu5Ac(a2-8)Neu5Ac(a2-3)[GalNAc(b1-4)]Gal(b1-4)Glc", "outline": "as §1"}, "[4]": {"target": "Neu5Ac(a2-8)Neu5Ac(a2-8)Neu5Ac", "outline": "as §1"}, "[5]": {"target": "Neu5Ac(a2-8)Neu5Ac(a2-8)Neu5Ac(a2-3)Gal(b1-4)Glc", "outline": "as §1"}, "[6]": {"target": "Neu5Ac(a2-8)Neu5Ac(a2-8)Neu5Ac(a2-3)[GalNAc(b1-4)]Gal(b1-4)Glc", "outline": "as §1"}, "[7]": {"target": "Neu5Ac(a2-8)Neu5Ac(a2-8)Neu5Ac(a2-8)Neu5Ac(a2-3)[GalNAc(b1-4)]Gal(b1-4)Glc", "outline": "as §1"}, "[8]": {"target": "Neu5Ac(b2-6)Gal(b1-4)GlcNAc", "outline": "as §1"}, "[9]": {"target": "Neu5Ac(b2-6)GalNAc", "outline": "as §1"}, "[10]": {"target": "Neu5Ac9Ac(a2-3)Gal(b1-3)GlcNAc", "outline": "as §1"}, "[11]": {"target": "Neu5Ac9Ac(a2-3)Gal(b1-4)GlcNAc", "outline": "as §1"}, "[12]": {"target": "Neu5Ac9Ac(a2-6)Gal(b1-4)GlcNAc", "outline": "as §1"}, "[13]": {"target": "Neu5Gc(a2-3)Gal(b1-3)GlcNAc", "outline": "as §1"}, "[14]": {"target": "Neu5Gc(a2-3)Gal(b1-3)[Fuc(a1-4)]GlcNAc", "outline": "as §1"}, "[15]": {"target": "Neu5Gc(a2-3)Gal(b1-4)Glc", "outline": "as §1"}, "[16]": {"target": "Neu5Gc(a2-3)Gal(b1-4)GlcNAc", "outline": "as §1"}, "[17]": {"target": "Neu5Gc(a2-3)Gal(b1-4)[Fuc(a1-3)]GlcNAc", "outline": "as §1"}, "[18]": {"target": "Neu5Gc(a2-6)Gal(b1-4)GlcNAc", "outline": "as §1"}, "[19]": {"target": "Neu5Gc(a2-6)GalNAc", "outline": "as §1"}, "[20]": {"target": "Neu5Gc(b2-6)Gal(b1-4)GlcNAc", "outline": "as §1"}}, "note": "The other results are listed elsewhere or left out.", "data": [{"binder": "B1", "values": [{"measurement": "glycan array binding signal (z-score)", "setting": "[1]", "result": -0.246}, {"measurement": "glycan array binding signal (z-score)", "setting": "[2]", "result": -0.252}, {"measurement": "glycan array binding signal (z-score)", "setting": "[3]", "result": -0.233}, {"measurement": "glycan array binding signal (z-score)", "setting": "[4]", "result": -0.242}, {"measurement": "glycan array binding signal (z-score)", "setting": "[5]", "result": -0.241}, {"measurement": "glycan array binding signal (z-score)", "setting": "[6]", "result": -0.23}, {"measurement": "glycan array binding signal (z-score)", "setting": "[7]", "result": -0.23}, {"measurement": "glycan array binding signal (z-score)", "setting": "[8]", "result": -0.25}, {"measurement": "glycan array binding signal (z-score)", "setting": "[9]", "result": -0.251}, {"measurement": "glycan array binding signal (z-score)", "setting": "[10]", "result": -0.261}, {"measurement": "glycan array binding signal (z-score)", "setting": "[11]", "result": -0.24}, {"measurement": "glycan array binding signal (z-score)", "setting": "[12]", "result": -0.246}, {"measurement": "glycan array binding signal (z-score)", "setting": "[13]", "result": -0.231}, {"measurement": "glycan array binding signal (z-score)", "setting": "[14]", "result": 0.069}, {"measurement": "glycan array binding signal (z-score)", "setting": "[15]", "result": -0.243}, {"measurement": "glycan array binding signal (z-score)", "setting": "[16]", "result": -0.263}, {"measurement": "glycan array binding signal (z-score)", "setting": "[17]", "result": -0.203}, {"measurement": "glycan array binding signal (z-score)", "setting": "[18]", "result": -0.257}, {"measurement": "glycan array binding signal (z-score)", "setting": "[19]", "result": -0.226}, {"measurement": "glycan array binding signal (z-score)", "setting": "[20]", "result": -0.24}]}]}
